Source: ChEMBL document CHEMBL1201862, “PubChem BioAssay data set” (2004)

Tested on: NCI-H322M
Assay: growth of human tumour cells (NCI), 48 h

SMILES | GI50
Cc1c2ccnc(-c3ccccc3)c2cc2c1[nH]c1ccccc12 | inactive: 3.38 µM
[N-]=[N+]=NCC(=O)c1cnc(O)nc1O | inactive: > 100 µM
O=C(Nn1c(-c2ccccc2)nc2ccccc2c1=O)c1ccc([N+](=O)[O-])cc1 | inactive: > 100 µM
Oc1cc(-c2ccc3c(c2)OCO3)nc2cc3c(cc12)OCO3 | inactive: 34.8 µM
CC(C)(C)c1ccc(O)c(CN(Cc2cc(C(C)(C)C)ccc2O)c2ccccc2)c1 | inactive: 16.1 µM
CC(C)(C)C1=NN=C2c3ccccc3C(=O)C21 (stereo unspecified) | inactive: > 100 µM
CN(C)CCn1c(=O)c2ccc(NCCCN(C)CCCNc3ccc4c(=O)n(CCN(C)C)c(=O)n5c6ccc([N+](=O)[O-])cc6c(=O)c3c45)c3c(=O)c4cc([N+](=O)[O-])ccc4n(c1=O)c23 | active: < 0.01 µM
O=C1C(=O)N(c2ccc(Cl)cc2Cl)C(=O)C(=O)C1c1nc2ccccc2s1 | inactive: > 100 µM
COc1ccc(OC)c(N2C(=O)CSC2c2cc(OC)c(OC)c(OC)c2)c1 (stereo unspecified) | inactive: > 100 µM
C[C@]12CCC(=O)O[C@H]1CCCCO2 | inactive: > 100 µM
CC1(C)C2CCC13C(=O)C1OC3(C2)C2C(=O)N(c3ccccc3)C(=O)C12 (stereo unspecified) | inactive: > 100 µM
CCOC(=O)Cn1c2ccc(Br)cc2c2nc3ccccc3nc21 | inactive: > 100 µM
CCCCCCCCCCCCCP(=O)(NCC(N)=O)OCC (stereo unspecified) | inactive: 19 µM
N#CC1(C#N)C2C=CC(c3coc4cccc2c34)C1(C#N)C#N (stereo unspecified) | inactive: 17.8 µM
Cc1cc(-c2ccccc2)nc2oc(=O)n(C)c12 | inactive: > 100 µM
C/C=C(/C)c1cnc(CC(C)C)c(=O)[nH]1 | inactive: > 100 µM
CCOC(=O)/C=C/c1c[nH]c(C(=O)OCC)c1 | inactive: > 100 µM
CNS(=O)(=O)NNS(=O)(=O)c1ccc(Br)cc1 | inactive: > 100 µM
COc1cc(C)cc2c(-c3c(O)cc(O)c4c3C[C@H](C)N[C@H]4C)cc(-c3cc(-c4c(O)cc(O)c5c4C[C@H](C)N[C@H]5C)c4cc(C)cc(OC)c4c3O)c(O)c12 | inactive: 37.4 µM
O=C1CSCc2sccc21 | inactive: > 100 µM
O=C(NCCCNCCNC(=O)c1cc(-c2ccccc2)nc2ccccc12)c1cc(-c2ccccc2)nc2ccccc12 | inactive: 2.35 µM
CC(C)(C)c1ccc(C(C)(C)C)c(N2C(=O)[C@@H]3[C@@H]4C=C[C@@H](C4)[C@]3(C)C2=O)c1 | inactive: 76.2 µM
O=C1CCCSCCCC(=O)CCCSCCC1 | inactive: > 100 µM

SMILES | GI50
COc1ccccc1NC(=S)N/N=C(/C)c1ccccn1 | inactive: 2.01 µM
CC(C)=CC(=O)c1[nH]c2ccccc2c1CC(=O)NCCc1c[nH]cn1 | inactive: > 100 µM
Cc1ccc(C(C)C)c(OCC(=O)N/N=C/c2c[nH]c3ccc(Br)cc23)c1 | inactive: 2.07 µM
NCC(NC(=O)OCc1ccccc1)C(=O)O (stereo unspecified) | inactive: > 50 µM
Cc1c2c(c(C)c3c[n+](C)ccc13)Oc1ccccc1O2 | inactive: 14.4 µM
CC[N+]1(C)CCC(O)(/C=C/c2ccc(Cl)c(Cl)c2)C(C(=O)/C=C/c2ccc(Cl)c(Cl)c2)C1 (stereo unspecified) | inactive: 7.69 µM
Cc1ccsc1/C=N/Nc1ccc2ccccc2n1 | inactive: 23.3 µM
O=C1NC(N2CCCCC2)=N/C1=C\c1ccccc1O | inactive: > 100 µM
CSc1c(C#N)c(O)n(-c2ccc(C)cc2)c(=O)c1C(C)=O | inactive: > 100 µM
CC(C)CCNC(=O)c1ccc(CNC(=O)/C=C/c2ccc3ccccc3c2)cc1 | inactive: > 100 µM
Cc1cc2c(cc1C)N1C(Cl)=C3CCCCC3=C(C#N)C1N2 (stereo unspecified) | inactive: 23.4 µM
COc1ccc(N2C(=O)C(N3C(=O)C=CC3=O)C2C=O)cc1 (stereo unspecified) | inactive: > 100 µM
CC(=O)OCC1OC(n2c(C)c(C(C)=O)c(-c3ccc(Cl)cc3)c(C#N)c2=S)C(OC(C)=O)C(OC(C)=O)C1OC(C)=O (stereo unspecified) | inactive: > 100 µM
Cn1c2c(c3ccccc31)C1CCCCC1C1C(=O)NC(=O)C21 (stereo unspecified) | inactive: > 100 µM
C=CCOC(=O)CCCCCCCCCCCCCCCOC(=O)c1c(CCC[C@@H](C)O[Si](C)(C)C(C)(C)C)nc([O-])[n+]2c1CC[C@H]2CC1(CC/C=C\[C@H](CC)O[Si](C(C)C)(C(C)C)C(C)C)OCCO1 | inactive: 29.2 µM
CCOC(=O)N1CCN(C=S)CC1 | inactive: > 100 µM
Nc1ncnc2c1ncc(=O)n2C1CC(O)C(CO)O1 (stereo unspecified) | inactive: > 100 µM
CCC(C)C1=C(OC(C)=O)[N+]2([O-])Oc3ccc(-c4c(OC(C)=O)c(OC(C)=O)c(-c5ccc(OC(C)=O)cc5)c(OC(C)=O)c4OC(C)=O)cc3OC2(C(C)CC)C(=O)N1OC(C)=O (stereo unspecified) | inactive: 16.3 µM
CCC1c2cc3n(c(=O)c2COC1O)Cc1c-3nc2ccccc2c1Cl (stereo unspecified) | inactive: 57.1 µM
CCCCOCOc1ccccc1P1(=O)COc2ccccc2OC1 | inactive: > 100 µM
COc1cc([C@H]2CC(=O)C[C@@H](c3cc(OC)c(OC)c(OC)c3)C23C(=O)c2ccccc2C3=O)cc(OC)c1OC | inactive: > 100 µM
COC(=O)C(Cc1ccccc1)NC(=O)c1ccc(CNC(=S)NCc2cccc(CNC(=S)NCc3ccccc3)c2)cc1 (stereo unspecified) | inactive: > 35.5 µM
CN1C2CCC1CC(C)(O)C2 (stereo unspecified) | inactive: > 100 µM

SMILES | GI50
COC(=O)/C=C1/CCC(C)(C(=O)NS(=O)(=O)c2ccc(C)cc2)C1(C)C (stereo unspecified) | inactive: > 100 µM
O=[N+]([O-])c1cc(CCl)ccc1CCl | inactive: 1.68 µM
O=C(Nc1ccn(C2CC(O)C(CO)O2)c(=O)n1)c1ccccc1 (stereo unspecified) | inactive: > 100 µM
O=c1c2cc(I)ccc2nc(SCc2nnco2)n1Cc1ccccc1 | inactive: 88.3 µM
Cc1ccc(-n2c(C)nc3c2C(=O)c2ccccc2C3=O)cc1 | inactive: 27.5 µM
Cc1nc(NC(=S)NC(=O)c2ccc(Cl)c(Cl)c2)sc1C(=O)/C=C/c1ccccc1[N+](=O)[O-] | inactive: 31.6 µM
C=CCN1C(=O)/C(=C/c2cccs2)N=C1SC/C=C/C | inactive: 68.4 µM
CS(=O)(=O)OC1CCN(C2(c3cccc(O)c3)CCCCC2)CC1 | inactive: > 100 µM
N#CCCN(CCC#N)c1ccc(/C=C2\N=C(c3ccccc3)N(NC(=O)c3ccncc3)C2=O)cc1 | inactive: > 100 µM
O=C1CC2C(=O)N(Cc3ccccc3)C1C=C2S(=O)(=O)c1ccccc1 (stereo unspecified) | inactive: > 100 µM
Cn1cnc(N2CCCC2)c(C#N)c1=O | inactive: > 100 µM
CCCc1n[nH]c(=O)n1N1C(=O)C=CC1=O | inactive: > 100 µM
COC1=CC(=O)c2c(O)c3c(c(O)c2C1=O)C=C(C)OC3O (stereo unspecified) | inactive: 1.41 µM
CC(C)=C1C(=O)c2c(Cl)sc(Cl)c2C1=O | inactive: 36.2 µM
CC(Oc1ccccc1)C(=O)NNC(=O)OC(C)(C)C (stereo unspecified) | inactive: > 100 µM
N#CC12C(=O)N3C(=NC(c4ccccc4)NC3c3ccccc3)C1(C#N)C(c1ccccc1)NC1=C2CCCC1 (stereo unspecified) | inactive: > 100 µM
Cc1ccc(-n2cc(-c3ccc(Cl)cc3)c3c(NNC(=S)NCc4ccccc4)ncnc32)cc1 | inactive: 5.87 µM
O=C1C2=C(c3ccccc31)C(c1ccccc1Cl)N1C(=O)CCSC1=N2 (stereo unspecified) | inactive: > 100 µM
O=C1C=CC(O)(C#CCO)C=C1 | inactive: 20.2 µM
CCCCCCn1c(SCC)c2ccccc2c1-c1nc(F)nc(F)n1 | inactive: > 100 µM
CC1C(=O)OC2CC[N+]3([O-])CC=C(COC(=O)C(C)(O)C1(C)O)C23 (stereo unspecified) | inactive: > 100 µM
O=c1c2ccccc2nc(-c2cccc(Cl)c2)n1NC1OC(CO)C(O)C(O)C1O (stereo unspecified) | inactive: > 100 µM
NCCCCNC1(c2cc3ccccc3s2)CCCCC1 | inactive: 4.73 µM

SMILES | GI50
CCOC(=O)CN1CCNCCN(CC(=O)OCC)CCNCC1 | inactive: > 100 µM
CCN1CCC(O)(/C=C/c2ccc(Cl)c(Cl)c2)C(C(=O)/C=C/c2ccc(Cl)c(Cl)c2)C1 (stereo unspecified) | active: 1.03 µM
COC(=O)C1CCc2c1c(=O)n1c([nH]c3ccccc31)c2C#N (stereo unspecified) | inactive: > 100 µM
Oc1ccc(O)c(CNc2ccc(C(O)C(F)(F)F)cc2)c1 (stereo unspecified) | inactive: 27.9 µM
O=C(O)c1ccccc1/C=N/N=C1NCCCCN1 | inactive: > 100 µM
O=C(c1nc2ccc([N+](=O)[O-])cc2nc1O)C(O)c1ccc2c(c1)OCO2 (stereo unspecified) | inactive: > 100 µM
C/C(=N/NC(=O)c1ccccc1Nc1ccccc1C(=O)N/N=C(\C)c1ccc(C)cc1)c1ccc(C)cc1 | inactive: > 100 µM
COc1ccccc1NC(=O)C1=C(C)NC(C)=C(C(=O)Nc2ccccc2OC)C1c1cccc2ccccc12 | inactive: > 100 µM
CC(C)(C)c1cc(Cc2ccc([N+](C)(C)C)cc2)c(O)c(C(C)(C)C)c1 | inactive: 19.3 µM
CCC(O)C1Cc2c(C)cc3c(c2O1)C(=O)c1ccccc1C3=O (stereo unspecified) | inactive: 42.2 µM
c1ccc2c(c1)ccc1cc3cc(NCCCCNc4ccc5nc6c(ccc7ccccc76)cc5c4)ccc3nc12 | inactive: 1.53 µM
O=C(Cc1ccccc1)N/N=C(/CCN1CCCC1)CC(c1ccccc1)c1c(O)c2ccccc2oc1=O (stereo unspecified) | inactive: > 100 µM
CC(C)=CCC/C(C)=C/CCC1(C)C2COC(=O)C21 (stereo unspecified) | inactive: > 100 µM
CCN(CC)C(=S)SC(C(=O)Nc1nnc(-c2ccccc2)o1)c1ccccc1 (stereo unspecified) | inactive: 15.6 µM
O=C1c2cc([N+](=O)[O-])ccc2NC2C(O)c3ccccc3N12 (stereo unspecified) | inactive: 46.7 µM
C=C1C(=O)O[C@@H]2[C@H]1C[C@@H](O)[C@H](C)[C@@](O)(C(=O)/C=C/C)[C@H]2OC(=O)C(C)CC (stereo partly specified) | inactive: 32 µM
CCOC(=O)C(=O)Nc1c(F)cc(F)cc1Br | inactive: > 100 µM
C=C1C(=O)[C@@]23CC[C@H]4[C@@](C)(CCC[C@@]4(C)C(=O)OC)[C@@H]2CC[C@]1(O)C3 | inactive: 1.74 µM
CC1CC2OC(=O)C3CC(O)CC(=C23)[C@@]12C[C@@H](c1ccoc1)OC2=O (stereo partly specified) | inactive: > 100 µM
COC(=O)C1[C@H](c2cc(OC)c(OC)c(OC)c2)OC(=O)C1(C(=O)OC)C(=O)c1ccc2c(c1)OCO2 (stereo partly specified) | inactive: > 100 µM
c1ccc(C2[C@@H]3CCCc4ccccc4C3=NN2c2ccccc2)cc1 (stereo partly specified) | inactive: > 100 µM
COC1(O)C(=O)c2ccccc2OC1(OC)c1ccccc1 (stereo unspecified) | inactive: > 100 µM

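48-hour exposure; five concentrations; linearly interpolated endpoints. The concentration for 50% growth inhibition is given as GI50.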 Calls of active or inactive are those of the source. Cut-off read from the data, not from the text of the source: active = GI50 up to about 1.1 µM and inactive = higher.
